The test system of one test is HSkMC. The test is described as follows: cytotoxicity call (relative viability < 0.9). The conditions noted are these: 10 µM.
In the next test the test system is HepG2. The test is described as follows: cytotoxicity call (relative viability < 0.9). The conditions noted are these: 10 µM.
Another test has as its system S. aureus RN4220. Briefly: growth inhibition call (relative growth <= 0.2). As to conditions: 50 µM.

The other results are listed elsewhere or left out.

Cytotoxicity call and growth inhibition call data for 27 compounds are collected here from the antibiotic and cytotoxicity screens of Wong et al. (2023).

`COc1ccc(S(=O)(=O)Nc2cccc3c2O[C@H](CN(C)Cc2ccc(Cl)c(Cl)c2)[C@@H](C)CN([C@@H](C)CO)C3=O)cc1`: the cytotoxicity call with HSkMC and with HepG2 was “inactive” in each case. The growth inhibition call with S. aureus RN4220 was “inactive”.
Consider `C[C@@H]1CN([C@@H](C)CO)C(=O)c2cc(NS(C)(=O)=O)ccc2O[C@@H](C)CCCCO[C@@H]1CN(C)S(=O)(=O)c1cn(C)cn1`, for which the cytotoxicity call in the test on HSkMC and with HepG2 was “inactive” each time. In addition, in the test with S. aureus RN4220, the growth inhibition call is “inactive”.
With `C[S+](CC[C@H](N)C(=O)O)C[C@H]1O[C@@H](n2cnc3c(N)ncnc32)[C@H](O)[C@@H]1O` (stereo partly specified), the cytotoxicity call in the test with HSkMC and in the test with HepG2 was “inactive” each time. In the test with S. aureus RN4220, the growth inhibition call is “inactive”.
`C[C@@H]1CN([C@@H](C)CO)C(=O)Cc2cc(NS(=O)(=O)c3ccccc3)ccc2O[C@@H]1CN(C)S(=O)(=O)c1ccccc1`: the cytotoxicity call in the test on HSkMC and in the test with HepG2 was “inactive” throughout. In the test with S. aureus RN4220, the growth inhibition call is “inactive”.
For the compound `COCC#Cc1ccc2c(c1)O[C@H](CN(C)Cc1ccc(F)cc1)[C@H](C)CN([C@H](C)CO)S2(=O)=O`, the cytotoxicity call with HSkMC and in the test on HepG2 was “inactive” in each case. Further, the growth inhibition call in the test with S. aureus RN4220 was “inactive”.
Consider `Cl.N=C(N)NC(=O)c1nc(Cl)c(N)nc1N`, for which the cytotoxicity call with HSkMC and in the test with HepG2 was “inactive” in each case. The growth inhibition call with S. aureus RN4220 was “inactive”.
Regarding `CCC(=O)N1C[C@]2(C1)CN([C@@H](CO)c1[nH]c3cc(ccc3c12)OC)S(=O)(=O)C`, the cytotoxicity call in the test on HSkMC and in the test on HepG2 was “inactive” each time. For the same compound, the growth inhibition call in the test on S. aureus RN4220 was “inactive”.
Regarding `C[C@H]1CN([C@@H](C)CO)C(=O)c2cc(NS(=O)(=O)c3ccc(F)cc3)ccc2O[C@@H]1CN(C)Cc1ccc(-c2ccccc2)cc1`, in the test on HSkMC, the cytotoxicity call was “inactive”. Besides, in the test on HepG2, the cytotoxicity call is “active”. Besides, in the test with S. aureus RN4220, the growth inhibition call was “inactive”.
As to `Cc1ccc(S(=O)(=O)Nc2ccc3c(c2)C(=O)N([C@@H](C)CO)C[C@H](C)[C@@H](CN(C)Cc2ccc(C(=O)Nc4ccccc4N)cc2)OCCCC[C@@H](C)O3)cc1`, the cytotoxicity call with HSkMC and with HepG2 was “inactive” in each case. Also, in the test with S. aureus RN4220, the growth inhibition call was “inactive”.
With `O=C(CN1CCOCC1)NCC[C@H]1CC[C@H](NC(=O)c2ccccc2F)[C@@H](CO)O1`, the cytotoxicity call with HSkMC and in the test on HepG2 was “inactive” throughout. Also, the growth inhibition call in the test on S. aureus RN4220 was “inactive”.
In the case of `Cn1c(=O)n2n(c1=O)[C@H](C1CC1)C=C1CN3[C@@H]([C@H](CCn4cc(CCC(=O)NO)nn4)OC(=O)[C@@H]3Cc3ccccc3)[C@@H]12`, the cytotoxicity call in the test on HSkMC and in the test with HepG2 was “inactive” in each case. Also, in the test with S. aureus RN4220, the growth inhibition call is “inactive”.
On to `C[C@@H]1CN([C@H](C)CO)C(=O)c2cccc(NC(=O)Nc3cccc4ccccc34)c2O[C@@H]1CN(C)C(=O)Nc1ccc2c(c1)OCO2`, for which the cytotoxicity call in the test on HSkMC and in the test on HepG2 was “inactive” in each case. For the same compound, in the test on S. aureus RN4220, the growth inhibition call is “inactive”.
Take `COc1ccc(S(=O)(=O)N(C)C[C@@H]2Oc3ccc(NC(=O)Cc4ccccc4)cc3C(=O)N([C@@H](C)CO)C[C@@H]2C)cc1`: the cytotoxicity call with HSkMC and in the test with HepG2 was “inactive” each time. Also, in the test with S. aureus RN4220, the growth inhibition call is “inactive”.
Take `COc1cccc(NC(=O)N(C)C[C@@H]2Oc3ncc(C#Cc4ccncc4)cc3C(=O)N([C@H](C)CO)C[C@@H]2C)c1`: the cytotoxicity call in the test on HSkMC and in the test with HepG2 was “inactive” in each case. Also, the growth inhibition call in the test with S. aureus RN4220 is “inactive”.
For `CC(O)(CC(=O)O)CC(=O)O`, the cytotoxicity call in the test on HSkMC and in the test on HepG2 was “inactive” in each case. Besides, the growth inhibition call in the test with S. aureus RN4220 is “inactive”.
Take `COc1ccc(S(=O)(=O)N(C)C[C@H]2OCCCC[C@@H](C)Oc3ccc(NC(=O)Nc4cccc5ccccc45)cc3C(=O)N([C@H](C)CO)C[C@@H]2C)cc1`: the cytotoxicity call with HSkMC and in the test on HepG2 was “inactive” in each case. For the same compound, in the test with S. aureus RN4220, the growth inhibition call was “inactive”.
Take `C[C@@H]1CN([C@@H](C)CO)C(=O)c2cc(NC(=O)Nc3ccc(C(F)(F)F)cc3)ccc2O[C@@H](C)CCCCO[C@@H]1CN(C)Cc1ccc(C(=O)O)cc1`: the cytotoxicity call in the test on HSkMC and in the test with HepG2 was “inactive” each time. Besides, in the test on S. aureus RN4220, the growth inhibition call was “inactive”.
In the case of `CCNc1nc(NCC)nc(C(=O)OCCO)n1`, the cytotoxicity call in the test with HSkMC is “inactive”. For the same compound, the cytotoxicity call in the test on HepG2 was “active”. Besides, the growth inhibition call in the test on S. aureus RN4220 was “inactive”.
For `Cc1noc(C)c1NC(=O)N[C@@H]1CC[C@H](CC(=O)NCCCN(C)C)O[C@@H]1CO`, the cytotoxicity call in the test on HSkMC and in the test on HepG2 was “inactive” in each case. Moreover, the growth inhibition call in the test on S. aureus RN4220 was “inactive”.
Take `CC(C)[C@@H](O)C[C@@H](C)O[C@@H]1O[C@H](CO)[C@@H](O)[C@H](O)[C@H]1O`: the cytotoxicity call in the test on HSkMC and in the test with HepG2 was “inactive” in each case. For the same compound, the growth inhibition call in the test with S. aureus RN4220 was “inactive”.
As to `Cc1noc(C)c1S(=O)(=O)N(C)C[C@H]1Oc2ccc(NS(C)(=O)=O)cc2C(=O)N([C@H](C)CO)C[C@@H]1C`, the cytotoxicity call in the test with HSkMC and in the test on HepG2 was “inactive” in each case. For the same compound, the growth inhibition call in the test on S. aureus RN4220 was “inactive”.
Consider `C[C@@H]1CN([C@H](C)CO)C(=O)c2cc(N(C)C)ccc2O[C@@H]1CN(C)S(C)(=O)=O`, for which the cytotoxicity call in the test with HSkMC and in the test with HepG2 was “inactive” each time. The growth inhibition call in the test with S. aureus RN4220 was “inactive”.
For the compound `C[C@H]1CN([C@@H](C)CO)S(=O)(=O)c2ccc(C#CCN(C)C)cc2O[C@@H]1CN(C)C`, the cytotoxicity call with HSkMC and in the test with HepG2 was “inactive” in each case. Moreover, the growth inhibition call in the test on S. aureus RN4220 was “inactive”.
With `CCOC(=O)N1CCN(C[C@@H](O)Cn2c(=O)c3c(ncn3C)n(C)c2=O)CC1`, the cytotoxicity call with HSkMC and in the test with HepG2 was “inactive” throughout. In the test with S. aureus RN4220, the growth inhibition call was “inactive”.
For `COc1ccc(NC(=O)Nc2ccc3c(c2)C(=O)N([C@@H](C)CO)C[C@@H](C)[C@H](CN(C)C(=O)Nc2ccc(C(F)(F)F)cc2)OCCCC[C@H](C)O3)cc1`, the cytotoxicity call in the test on HSkMC (human skeletal muscle cells) and in the test on HepG2 was “inactive” in each case. In addition, in the test on S. aureus RN4220, the growth inhibition call was “inactive”.
Consider `C[C@@H]1CN([C@@H](C)CO)C(=O)c2cc(NS(=O)(=O)c3ccc(F)cc3)ccc2O[C@@H](C)CCCCO[C@@H]1CN(C)C(=O)Cc1ccccc1`, for which the cytotoxicity call with HSkMC and in the test with HepG2 was “inactive” in each case. In addition, the growth inhibition call with S. aureus RN4220 is “inactive”.
Consider `C[C@@H]1CN([C@H](C)CO)C(=O)c2cc(NC(=O)Cc3ccccc3)ccc2O[C@@H](C)CCCCO[C@H]1CN(C)C(=O)NC1CCCCC1`, for which the cytotoxicity call with HSkMC and in the test with HepG2 was “inactive” in each case. For the same compound, the growth inhibition call in the test on S. aureus RN4220 is “inactive”.
